Measurements published in PubChem BioAssay AID488969 (Vanderbilt High Throughput Screening Facility, 2010).
The full ranking holds about 110,000 compounds; the median of “z-score” is about -0.1, and the highest 2% start at about 2. Some of the results follow. Activity calls are given as the source filed them.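 Rule for the calls: active = z-score in the third read window above 3 or below -3; inactive = the rest.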

Biological target: Metabotropic glutamate receptor 8 (Rattus norvegicus) (UniProt P70579)
Experiment: mGluR8 Gi/Go-coupled signaling modulation – cell-based, rat, thallium flux, HTS, primary screen (AID 488969)
Conditions: HEK293 rat mGluR8, GIRK (G protein-gated inwardly rectifying potassium channel) thallium flux, FluoZin2; at 10 µM; stronger effect = higher value; submaximal glutamate (EC20) added with thallium

Chain of UniProt P70579 (P70579 whole entry, looked up): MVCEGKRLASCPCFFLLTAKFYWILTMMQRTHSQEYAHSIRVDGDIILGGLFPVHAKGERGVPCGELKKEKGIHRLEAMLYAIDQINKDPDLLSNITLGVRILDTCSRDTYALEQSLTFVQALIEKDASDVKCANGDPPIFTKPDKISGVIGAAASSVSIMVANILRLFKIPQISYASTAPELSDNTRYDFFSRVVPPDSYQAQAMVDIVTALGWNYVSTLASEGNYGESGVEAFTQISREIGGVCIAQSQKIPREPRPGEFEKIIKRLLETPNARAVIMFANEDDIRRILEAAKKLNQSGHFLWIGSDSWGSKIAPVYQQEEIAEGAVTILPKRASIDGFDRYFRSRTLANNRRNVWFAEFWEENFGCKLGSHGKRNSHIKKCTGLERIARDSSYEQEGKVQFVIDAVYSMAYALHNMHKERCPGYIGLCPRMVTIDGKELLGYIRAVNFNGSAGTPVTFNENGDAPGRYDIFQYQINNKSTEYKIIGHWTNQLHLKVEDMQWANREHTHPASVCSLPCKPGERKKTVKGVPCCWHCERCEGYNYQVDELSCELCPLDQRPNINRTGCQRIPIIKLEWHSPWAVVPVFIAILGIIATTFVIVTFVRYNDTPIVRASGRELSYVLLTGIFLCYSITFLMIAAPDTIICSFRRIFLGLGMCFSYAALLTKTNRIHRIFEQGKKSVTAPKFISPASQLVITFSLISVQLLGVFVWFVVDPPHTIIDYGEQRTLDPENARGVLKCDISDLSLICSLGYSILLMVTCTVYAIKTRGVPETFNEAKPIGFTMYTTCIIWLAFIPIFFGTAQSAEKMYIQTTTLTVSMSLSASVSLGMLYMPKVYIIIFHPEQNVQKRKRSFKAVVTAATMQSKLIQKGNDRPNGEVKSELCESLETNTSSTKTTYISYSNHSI

Structure (SMILES)	z-score
Cc1cc(C)n2nc(C(=O)Nc3ccc4c(c3)OCO4)nc2n1	-0.107
O=C(Nc1cccc(S(=O)(=O)NCc2ccco2)c1)c1cc(-c2ccccc2)nc2ccccc12	0.0964
CCCc1cc(=O)[nH]c(SCc2nc3ccc([N+](=O)[O-])cc3[nH]2)n1	-0.388
COC(=O)c1scc(C)c1NC(=O)C1CCCCC1	-0.231
Cc1ccsc1C(=O)NCCC(c1ccccc1)c1ccccc1	-0.265
COc1ccc(S(=O)(=O)NCCc2csc(-c3cccnc3)n2)cc1	-0.0463
O=C(O)CCCCCCCCCC(=O)c1cccs1	0.13
c1ccc(-n2ncc3c(N4CCN(CCOc5cccc6ccccc56)CC4)ncnc32)cc1	-0.133
Cc1ccsc1C1Nc2ccc3ncccc3c2C2=C1C(=O)CC(C)(C)C2 (stereo not drawn)	-0.697
Cc1ccc(NC2=NC3(CCCCC3)N=C(N)N2)c(C)c1	0.379
Cc1csc(NC(=O)C2CCCCC2C(=O)O)n1 (stereo not drawn)	-0.149
Cc1ccn2c(Nc3ccc4c(c3)OCO4)c(-c3ccccn3)nc2c1	-0.456
CCOC(=O)CSc1nc2sc(C)c(C)c2c(=O)n1C	-1.17
COCCCN(C)C1CCN(C(=O)Nc2ccc(F)cc2)CC1	0.711
COc1ccc(Cl)cc1N(C)C(=O)CCNC(=O)Cn1cnc2ccccc2c1=O	0.258
Oc1ccc2ccccc2c1/C=N/c1nc2c(s1)CCCC2	0.0773
Cc1cc(NC(=O)CSc2nc(-c3ccc(F)cc3)cs2)no1	0.222
COc1cccc(C2C(C#N)=C(C)NC3=C2C(=O)CC(C)(C)C3)c1 (stereo not drawn)	-0.45
O=C(NNC1CC(=O)N(c2cccc(Cl)c2)C1=O)c1cccs1 (stereo not drawn)	0.00448
CCn1c(SCC(=O)N2CCCC2)nnc1-c1ccc(N)cc1	0.183
CCn1c2ccccc2c2cc(NC(=O)COc3ccc(OC)cc3)ccc21	-0.0603
Cc1ccc2c(c1)NC(=O)CC(c1ccccc1)=N2	active: 8.23
Cc1ccc(SCc2ccc(C(=O)Nc3cccc([N+](=O)[O-])c3)cc2)cc1	-0.0473
COc1ccc(OC2OC3COC(C)(C)OC3C(O)C2NC(C)=O)cc1 (stereo not drawn)	-0.217
CCn1cc(C(=O)N2CCc3ccccc32)c(=O)c2cc(S(=O)(=O)N3CCOCC3)ccc21	-0.699

Structure (SMILES)	z-score
CCOC(=O)c1c(NC(=O)c2cccs2)sc(C)c1C	0.154
O=C(N1CCCC1)C12CC3CC(CC(C3)C1)C2	-0.391
CCCCC(=O)Nc1nn(CCC)c2nc3ccccc3cc12	-1.22
O=C(CCC1N=C2c3ccccc3N=C(SCc3ccc(F)cc3)N2C1=O)NCc1ccco1 (stereo not drawn)	-0.0995
COc1ccc([N+](=O)[O-])cc1NC(=O)Cc1ccc(Cl)cc1	-0.271
Cc1ccc(SCC(=O)Nc2cccc(-c3nnc(-c4ccco4)o3)c2)cc1	-0.215
Cc1nn(C(=O)c2ccco2)c(C)c1Sc1ccccc1	-0.328
COc1ccc(Cl)cc1C(=O)NCC#N	-0.266
COc1cc(CNCC(C)C)c(Br)cc1OCC(=O)NCc1ccccc1	0.232
COCCn1c(Sc2ccccc2)nc2c1c(=O)[nH]c(=O)n2C	-1.07
Cn1c(=O)n(CCCOc2ccc(Br)cc2)c2ccccc21	0.384
COc1ccc(Oc2ccccc2/C=C/C(=O)O)cc1	0.219
COc1ccc(C(=O)CN2CC(C)SC2=Nc2ccc(Cl)cc2)cc1 (stereo not drawn)	-0.183
COc1ccccc1OCc1ccc(C(=O)n2nc(C)c(Cl)c2C)o1	-0.181
CN1C(=O)NC(c2ccccc2)C2=C1CN(c1ccc3ccccc3c1)C2=O (stereo not drawn)	-0.18
C#CCOC(=O)c1csc2nnsc12	-0.103
Cc1cccc(NC(=S)N(CCN(C)C)C(C)c2ccccn2)c1 (stereo not drawn)	0.0557
COc1ccc(Cl)cc1NC(=O)N1CCN(S(C)(=O)=O)CC1	0.29
CCN(CC)c1ccc(NC(=O)COC(=O)CCC(=O)c2ccc(F)cc2)cc1	-0.0202
COc1ccc(OCCCn2c(=O)oc3ccccc32)cc1	0.326
Cc1cccc(NC(=O)/C(=C\c2ccco2)NC(=O)c2cccs2)c1	-0.204
Cc1ccccc1Nc1nc(N)nc(CSc2nnc(-c3ccccc3)n2C)n1	0.307
CCN(CC)S(=O)(=O)c1cccc(C(=O)NC(Cc2c[nH]c3ccccc23)c2nnc3n2CCC3)c1 (stereo not drawn)	-0.455
O=C(NCCN1CCOCC1)c1ccc(CS(=O)(=O)Cc2ccccc2F)o1	-0.141
O=C(COC(=O)c1ccccn1)Nc1cccc(Cl)c1Cl	0.0326

Structure (SMILES)	z-score
CC(C)(C)c1ccc(/C=C/C(=O)N2CCN(c3ncccn3)CC2)cc1	-0.394
O=c1c2cnn(-c3ccccc3)c2nnn1Cc1ccccn1	-0.283
C=CCn1c(C)c(C(C)=O)c(N2CCCC2)nc1=S	0.317
CCn1c(C(c2ccccc2)c2ccccc2)n[nH]c1=S	-0.484
CCCCCSc1nncc(=O)[nH]1	-0.281
Cc1ccc(S(=O)(=O)N2CCN(C(=O)CSc3nc4ccccc4c(=O)[nH]3)CC2)c(C)c1	-0.321
CC1(O)C(=O)c2ccccc2N(c2ccccc2)C1=O (stereo not drawn)	-0.0727
Cn1c(=N)n(CC(=O)c2cccs2)c2ccccc21	-0.0567
CN1C(=O)C(C(=O)NC(C)(C)C)C2c3ccccc3OC13CCCCC23 (stereo not drawn)	0.209
O=S(=O)(NCCc1ccncc1)c1ccc(Br)cc1	-0.0433
CCc1ccc2nc(SCC(=O)N3CC(=O)Nc4ccccc43)c(C#N)cc2c1	1.16
COc1ccc(C(=O)c2ccc(OC)c3cccc(O)c23)cc1OC	-0.286
CCOc1ccc(C2N(c3cc(C)on3)C(=O)C3CCCN32)cc1OC (stereo not drawn)	-0.404
CCOC(=O)c1cnn(-c2cc(C)nc3c(-c4ccc(Cl)cc4)c(C)nn23)c1N	-0.0786
CC(C)c1nccn1CCC(=O)O	0.262
Cc1ccc(N(CC(=O)NCc2ccccc2Cl)S(=O)(=O)c2cccs2)cc1	-0.232
Cc1nnc(SCc2ccccc2C#N)n1-c1ccccc1	1.19
Cc1ccc(-c2noc(C3CCN(C(=O)Nc4ccc(C#N)cc4)CC3)n2)o1	-0.0373
COc1ccc(NC(=O)c2ccccc2NC(=O)CSc2ccccc2)cc1	-0.249
N#CC1=C2SCC(O)(c3ccccc3)N2C(=O)CC1c1cccs1 (stereo not drawn)	-0.336
CC(=O)Nc1cccc(OCC(=O)NC(C)C(C)C)c1 (stereo not drawn)	0.366
COC(=O)CSC(C(=O)Nc1ccc(C)c(C)c1)c1ccccc1 (stereo not drawn)	-0.0715
Cc1nnc(SCC(=O)NN2C(=O)NC3(CCCCC3)C2=O)s1	-0.0833
